# Source: the supplement of paper PMC3334620
# Whole data set: some 33,000 sequences, median “E-score (-0.5 to 0.5)” near -0.054, cut for the highest 2% near 0.35. The list shows a part of the results.
# Target: T1, Stb5 (UniProt P38699)
# T1 sequence: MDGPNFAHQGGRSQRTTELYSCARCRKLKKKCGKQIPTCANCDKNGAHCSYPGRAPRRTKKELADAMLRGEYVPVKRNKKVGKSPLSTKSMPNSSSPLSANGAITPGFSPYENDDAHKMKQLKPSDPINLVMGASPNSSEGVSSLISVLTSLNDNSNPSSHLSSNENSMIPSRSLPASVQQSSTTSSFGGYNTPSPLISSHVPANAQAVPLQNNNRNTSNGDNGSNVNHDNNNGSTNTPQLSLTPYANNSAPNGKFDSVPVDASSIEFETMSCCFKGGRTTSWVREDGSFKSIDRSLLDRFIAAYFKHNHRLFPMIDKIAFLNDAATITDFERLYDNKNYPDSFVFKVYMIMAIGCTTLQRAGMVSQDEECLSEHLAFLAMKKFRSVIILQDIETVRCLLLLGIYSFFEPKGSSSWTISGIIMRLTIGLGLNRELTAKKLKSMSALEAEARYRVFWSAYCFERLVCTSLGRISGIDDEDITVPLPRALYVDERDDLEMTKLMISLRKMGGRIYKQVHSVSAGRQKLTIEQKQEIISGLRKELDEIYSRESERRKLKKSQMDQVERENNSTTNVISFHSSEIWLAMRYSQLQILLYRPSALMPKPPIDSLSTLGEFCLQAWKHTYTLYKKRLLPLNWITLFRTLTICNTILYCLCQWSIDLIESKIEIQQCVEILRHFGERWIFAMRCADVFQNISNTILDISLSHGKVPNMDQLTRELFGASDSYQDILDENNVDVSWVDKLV
# Experiment: PBM E-score (8-mer binding enrichment) (E-score (-0.5 to 0.5)); higher = stronger / more preferred TF binding; most listed sequences are background and not binding sites
# Conditions: protein concentration: 200 nM; construct: GST-full length
# Outline: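 Yeast transcription factors, full-length or as DNA-binding domains, were expressed with a GST tag using PURExpress in vitro transcription/translation. At about 100-200 nM they were applied to universal all-10-mer Agilent arrays, double-stranded by primer extension on fresh or once-stripped slides. Fluorescent anti-GST detected bound protein, and masliner normalised the scans. E-scores for ungapped eight-base words, pooled with reverse complements, came from the Universal PBM Analysis Suite.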
row,Sequence,PBM E-score
1,GCGAGGCC,-0.044
2,GACCAGAA,-0.2
3,GGGCCTTA,0.213
4,GCCGGGCC,0.172
5,ACGAATAA,0.0965
6,TCCTTGCA,-0.0028
7,AGCCCCCA,-0.2
8,GTTTCGAA,-0.0651
9,AGGTCTCG,-0.207
10,GCAGAACA,-0.0997
11,GTACGAAC,0.09
12,AGATATCC,0.045
13,AAATGATT,-0.0998
14,ATGTCAGA,-0.247
15,ACGATCGC,-0.0907
16,AGCGAACA,-0.0242
17,CTACTGGA,-0.0154
18,TCCGTGAA,0.171
19,CACTTGAG,-0.221
20,GTAAAGGA,-0.0835
21,ACCCCCTA,-0.371
22,AGGGACAA,0.00911

row,Sequence,PBM E-score
1,ACTGTGTC,-0.104
2,AATTAGGG,-0.0274
3,ACGAACAA,0.0772
4,CGGGGACG,0.141
5,AGTGTAAC,-0.175
6,GAAGAATA,-0.123
7,CACGCACA,-0.0272
8,GCCACACA,-0.0106
9,AGGGAGCC,-0.276
10,ACAATCAC,-0.129
11,CAATGGTA,0.0642
12,CTGGCTAA,-0.156
13,GCAGGCGC,-0.0165
14,GCGCACGC,0.133
15,ATTCGAAC,-0.0642
16,GTCGGGGA,0.382
17,GACTCTGA,0.0446
18,TGGATGAA,-0.203
19,CGCCCCCG,0.209
20,ACTTACGC,0.0737
21,AAGGCCCC,0.191
22,TGCTCACA,-0.231

row,Sequence,PBM E-score
1,AGTGTTTC,-0.215
2,AGTTGAAC,-0.182
3,AAGAATAC,-0.0805
4,ATACTCGG,0.134
5,GACAATTA,0.0266
6,ACGAGGCG,0.0576
7,CCGAGGAG,0.0924
8,CGGAGTAG,0.242
9,AGATAGCT,-0.0482
10,ACCCACTG,-0.00286
11,CAGTACCC,-0.102
12,GGCGTTCA,0.072
13,ACCTAAAA,0.0964
14,TATACAGA,-0.138
15,CGCATACA,0.0776
16,GCGGTAGA,0.193
17,ACTCTTAT,-0.042
18,CATCGCAC,0.111
19,TCAGGACA,-0.152
20,CGCGTCTC,0.0131
21,GACCGTTA,0.278
22,TAGTACGA,-0.0716

row,Sequence,PBM E-score
1,TATAGTAA,-0.111
2,CCCCCCTC,-0.345
3,AAGCGCAT,-0.161
4,CGAGTCGC,0.00915
5,ACCAATTA,-0.0905
6,GACAACAC,-0.0174
7,CGTGACGA,0.0457
8,TCCCGCAA,0.0958
9,ACACTACA,-0.149
10,GGAGTTGA,0.0402
11,ACGGAGGC,0.172
12,GATCACGC,-0.183
13,ACGAATAG,-0.207
14,CTCCTAGC,-0.184
15,CCAGTAGG,-0.0926
16,TATTACCA,0.0377
17,ACTCTCCG,0.0916
18,TCTCGGCA,0.12
19,CCCCTTAA,-0.0771
20,ACACATAA,-0.068
